Measured values as given in PubChem BioAssay (NCI).
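Dose response: 5 concentrations. Exposure: 48 h. Format: 96-well plates. Endpoint: linear interpolation; highest concentration if not reached. The concentration for 50% growth inhibition is given as GI50. At the TGI there is no net growth.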

Tested on: NCI-H322M lung
Experiment: inhibition of tumour cell growth, NCI panel, 48 h

SMILES | GI50 [µM] | TGI [µM]
COC(=O)C[C@](O)(CCCC(C)C)C(=O)O[C@H]1C(OC)=C[C@@]23CCCN2CCc2cc4c(cc2[C@@H]13)OCO4 | 6.95 | 25.6
N#Cc1c(-c2ccc(F)cc2)nc(SCc2ccc(F)cc2)nc1N1CCNCC1 | 14 | 27.2
COc1ccc(N(C)c2cc(C#N)nc3ccccc23)cc1/C=C/C(=O)NO | < 0.01 | 25.6
